Variants at the background level are over-represented here.
B1: TPR 5TU (parent)
chain: GGAUCUUCUCGAUCUAACAAAAAAGACAAAUCUGCCACAAAGCUUGAGAGCAUCUUCGGAUGCAGAGGCGGCAGCCUUCGGUGGCGCGAUAGCGCCAACGUUCUCAACUAUGACACGCAAAACGCGUGCUCCGUUGAAUGGAGUUUAUCAUG

Variants of: B1
Assay: polymerase ribozyme fitness, log enrichment relative to wild type (log ratio); higher = more active; in vitro selection for triplet polymerase activity
In short: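 Fitness compares each genotype's enrichment to that of the wild type on a logarithmic scale, averaging replicates with inverse-variance weights. The logarithm is base 2. Enrichment came from Illumina sequencing of input and output libraries after one triplicate round of in vitro selection, which included frozen incubation at −7 °C, of PCR-built, transcribed mutant libraries of each subunit of a heterodimeric triplet polymerase ribozyme. Only genotypes with ≥10 input reads and ≥1 read per output were kept.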

| Variant | polymerase ribozyme fitness (log ratio) |
| --- | --- |
| C32G U146A | -3.88 |
| U31G C57U G83C C87A | ≤ -4.2 |
| U31C C76A C93U G100A G141C | ≤ -4.2 |
| A29U U31G C35G U55A C57A A66C C79U C96G | ≤ -4.2 |
| C32U A40G G81C C85U G88U C93A A97C A106U U130A G143U | ≤ -4.2 |
| U31G C43A G68C G81A C87G | ≤ -4.2 |
| A30U C32G C51U G74U C76G G81C G86C | ≤ -4.2 |
| U31C C99G C103U | -0.958 |
| A30U C54G C95A A98U A122C G141C U144C | ≤ -4.2 |
| A30G G92A U145G | ≤ -4.2 |
| A29U G70C G84A C96U | ≤ -4.2 |
| U31G U55A A142U | -1.54 |
| C32A A91U C93A | ≤ -4.2 |
| A29U U56A G126A C132G G140A | ≤ -4.2 |
| A30U C35A U61A U77C G128C U148G | ≤ -4.2 |
| A30G A64C A106U | ≤ -4.2 |
| A30U C79U | ≤ -4.2 |
| A29U U55C A60C G88U C93G | ≤ -4.2 |
| C32G A37C C85G | ≤ -4.2 |
| A30G G74C C114U | ≤ -4.2 |
| U31G U44G G50A G70A G86U C114A C131U A137C U144G | ≤ -4.2 |
| U31G C79U C87G A120C G133A | ≤ -4.2 |
| C32U U55G G67C G84A A113U | ≤ -4.2 |
| A30U C85U A97U G128A G140C C149U | ≤ -4.2 |

| Variant | polymerase ribozyme fitness (log ratio) |
| --- | --- |
| C32U A52U U90C G128C | ≤ -4.2 |
| A29U U77A G80A G92A U148C | ≤ -4.2 |
| U31C C79G U139C U144G | ≤ -4.2 |
| C32G G71C A91U C131A G152U | ≤ -4.2 |
| A30U G50A C57A C75U C85A G140U G143A | ≤ -4.2 |
| C32A A47C G81C C95G G112A G140C | ≤ -4.2 |
| U31G G65C A73G C93G A119U | ≤ -4.2 |
| A30U G84C C85G A113U G141C | ≤ -4.2 |
| U31A A41U G83C U111G G136C | ≤ -4.2 |
| A30C U55A U56A U101A G112C | ≤ -4.2 |
| A30C A47U C99U U130A | ≤ -4.2 |
| U31A A60G C72U A89G U102C A122G | ≤ -4.2 |
| A30C G88U U135C A150C | ≤ -4.2 |
| A30U A73G G81C G92U G141A U148A | ≤ -4.2 |
| A30C U31G U77G A107G U148G | ≤ -4.2 |
| A30U G59U C93U | ≤ -4.2 |
| C32G G94A | -3.8 |
| C32G A49U G65U C93U C99G A110U A147U | ≤ -4.2 |
| A29U U33C C87U C99U | ≤ -4.2 |
| U31G U61A C93G A121U | ≤ -4.2 |
| A29U G92A A137G U148G | ≤ -4.2 |
| A29U U45G A52C A66C C93U G140U | ≤ -4.2 |
| A30U C87G C116A G141A | ≤ -4.2 |
| A30U G83U G88A U109C C125U G133C | ≤ -4.2 |

| Variant | polymerase ribozyme fitness (log ratio) |
| --- | --- |
| C32G G141A | ≤ -4.2 |
| C32U G74A G88C G140A G141U | ≤ -4.2 |
| A30C C76A G83C | ≤ -4.2 |
| A30C C32U C43U A66C A73U | ≤ -4.2 |
| A30U A41C G70C C93G | ≤ -4.2 |
| U31A G80C U90C C103G G136U A150C | ≤ -4.2 |
| A30C C57U G59C U82A G117A A138C | ≤ -4.2 |
| U31G A122U A142C | -1.56 |
| C32A G50A A137G | ≤ -4.2 |
| U31C G68C C95A A119U C129A A138G C149A | ≤ -4.2 |
| C32U A49G A52G A138G | ≤ -4.2 |
| A30G A150G | ≤ -4.2 |
| A30U U33C U56A A73G C96G A106C A107U C118U G126C A138U | ≤ -4.2 |
| U31C C96G A137U | ≤ -4.2 |
| A30U C57G G62A G70C C96U C105A A120U C125A | ≤ -4.2 |
| U31C G50A A73U C93U C125U A142G | ≤ -4.2 |
| U33A G48A U78C G84A C105U | ≤ -4.2 |
| A30G C72G C93A A121U A142U | ≤ -4.2 |
| C32G U55A G58A G68A C85U G88C C93A A106G C116A U135A | ≤ -4.2 |
| A30C C93A A97G | ≤ -4.2 |
| C32A A73G C76A C85U C95U G143A | ≤ -4.2 |
| A30U G80C G112U | ≤ -4.2 |
| U31C C79U U102C A106G U134G | ≤ -4.2 |
| U33A C85U U146G A147U A150G | ≤ -4.2 |

| Variant | polymerase ribozyme fitness (log ratio) |
| --- | --- |
| U31G G86U G88A A107G U111A G152A | ≤ -4.2 |
| U31A U55A G83A G117A | -0.253 |
| A29U U53A C76G C85A G117A C149U | ≤ -4.2 |
| U31A C95G U130A | -3.43 |
| A30U A47G U55A U82G U144C | ≤ -4.2 |
| A30G G34A G50A C54A C85U | ≤ -4.2 |
| A30G C43G G83A | ≤ -4.2 |
| C32A A37U U56A G74A C76G G86A A115G G124A U151G | ≤ -4.2 |
| C32U G83U G126A | -4.19 |
| C32G C54U A73C C79U C87G U145G | ≤ -4.2 |
| C32U U61A G88A A89C C96G A98U A107U | ≤ -4.2 |
| C32G A41U A47C A49C A113G C125U | ≤ -4.2 |
| U31G C36U A91G C93A A115G | ≤ -4.2 |
| C32G A52G A89U G92C C95U | ≤ -4.2 |
| A30U G62U U90G C95A A107C C118A A142G | ≤ -4.2 |
| A30G C43G U44A A110G U146C C149U | ≤ -4.2 |
| A30C C54A C96A | ≤ -4.2 |
| U31A A40G G67U | ≤ -4.2 |
| C32A G46C C54U U56A G84U U145A | ≤ -4.2 |
| C32U G59U G81A | -3.13 |
| A29U U33G C54G A106C | ≤ -4.2 |
| A30U U45G C75A G86A C103G C105A | ≤ -4.2 |
| A30G U77A C87U | ≤ -4.2 |
| U31G C63U C69U G70C G84U G126A U135A | ≤ -4.2 |

| Variant | polymerase ribozyme fitness (log ratio) |
| --- | --- |
| A30C G42U U44A | ≤ -4.2 |
| U31G C54G C108G | ≤ -4.2 |
| C32U C87U G100U A115G | ≤ -4.2 |
| U31G G50A G58A U61A C87A U127G | ≤ -4.2 |
| U31G C35G G62C U77A G83U | ≤ -4.2 |
| U31A U90G C95U G141U | ≤ -4.2 |
| U31A U44A A52C G71U G83C G86A A97C U104A | ≤ -4.2 |
| A30C G50C A66G G128U | ≤ -4.2 |
| A30G C38G C54A G62A C87U G126A | ≤ -4.2 |
| C32U C118U G133C | -2.99 |
| U31A C32U C36A U53A G58A U109C U134A | ≤ -4.2 |
| A30G C43G C87G C108U C125A C131G | ≤ -4.2 |
| U31G C54A G88A C95A A106C G136U | ≤ -4.2 |
| U31A G50C C85U | -3.83 |
| C32G A41U A91U A107G C125G U135C | ≤ -4.2 |
| A30U A37U U53A C87U | ≤ -4.2 |
| U31A U44A G68A G81A U104G C125A | ≤ -4.2 |
| U31G U45A A49C G84A A113G A142C | ≤ -4.2 |
| A30G G46C G80C C93U C131A G143A | ≤ -4.2 |
| C32U G65C U77A C87G U90C C114A U151A | ≤ -4.2 |
| A30G A40U C57G C95A C108G G133A | ≤ -4.2 |
| U31A U55A A147G | -0.55 |
| A30U C38A C75G C85U G141C | ≤ -4.2 |
| U31G G58C G140C | -4 |

| Variant | polymerase ribozyme fitness (log ratio) |
| --- | --- |
| C32A A49U U61A C69G A120U U145C C149G | ≤ -4.2 |
| A30G A39U U78G G88A G92U A137U U146C | ≤ -4.2 |
| C32U C54G G68U C75A | -3.88 |
| U31C C36G G136C U139C | ≤ -4.2 |
| C32G A37U A113C C114U A137U U146C | ≤ -4.2 |
| U31C C95G | -0.224 |
| U33A C76G G84C C85G C87G A89G G136C U145A | ≤ -4.2 |
| A30U A137C A150C | ≤ -4.2 |
| C32A A41C C51U G58A C69U C93U C108U | ≤ -4.2 |
| C32G C72U C96G U134G U135G | ≤ -4.2 |
| C32U A40G C105A | -3.89 |
| U33A C43G A60G G70C G83C G124C G143A | ≤ -4.2 |
| U31C C87A | -4.2 |
| C32A A37C C79A C93U | ≤ -4.2 |
| U31G C95U | 0.463 |
| C32U U56A C99G U148G | ≤ -4.2 |
| U31C U53G G67C C76G G83A | -3.62 |
| C32U C35A C36G G83U C93U U139G G143U | ≤ -4.2 |
| C32U U33A U151A | -4.18 |
| C32A U45A G140U | ≤ -4.2 |
| A30C C35G G58C G74U C149A | ≤ -4.2 |
| C32U A41C A49C A52G U56G C79A C132A | ≤ -4.2 |
| C32U A49C | -4.13 |
| C32A U44A A60C C79G G92U | ≤ -4.2 |

| Variant | polymerase ribozyme fitness (log ratio) |
| --- | --- |
| U31G U55C C95U C108A C123A G124U | ≤ -4.2 |
| C32A U55C G65A U77G C87U C103A C125A G141C | ≤ -4.2 |
| U31A G71A G81A A122C | ≤ -4.2 |
| U31C C35G C36U C51G G92C U109A U151A | ≤ -4.2 |
| U31G C76G A91C C125G | ≤ -4.2 |
| U31C A91C U148C | ≤ -4.2 |
| A30U G42C C76G | ≤ -4.2 |
| C32G A47G U56A C85U U109A | ≤ -4.2 |
| C32U G71C G74U | ≤ -4.2 |
| C32U U61A G74U C99G | ≤ -4.2 |
| U31A U61C C63U A66G G70A G83U | ≤ -4.2 |
| C32U U33G U61A G62C G83C C95A C96G C105A A107C U109G G124A G140C | ≤ -4.2 |
| A30U A49U A60C C85G C105A A120G G126A A137G | ≤ -4.2 |
| U31A C51A A73G C123A | ≤ -4.2 |
| C32A C85U A142U | ≤ -4.2 |
| A29U U61A A91U | ≤ -4.2 |
| A30C G50U U77G A91U G117U A122U | ≤ -4.2 |
| A30U A41G A60C C85A G141A U145A | ≤ -4.2 |
| C32G C38U C95G G140A | ≤ -4.2 |
| U31C A40C G94A | 1.25 |
| A30G A64C A89U C93U | ≤ -4.2 |
| U31A C57U C96A U111C A115U G124U | ≤ -4.2 |
| U33A C43U U56A G58C A119G U127C | ≤ -4.2 |

Source: the RNAGym collection of RNA variant scans (doi:10.1073/pnas.2313332121)
